The RNAGym collection of RNA variant scans (doi:10.1093/nar/gkz1192)
The source gives no read counts; variants with many changes may rest on few reads.

B1: CPEB3 Ribozyme (parent)
chain: UAACAGGGGGCCACAGCAGAAGCGUUCACGUCGCAGCCCCUGUCAGAUUCUGGUGAAUCUGCGAAUUCUGCUGUAUAUCUC

Variants of: B1
Assay: self-cleavage, relative activity (ratio to wild type); higher = more cleavage; in vitro, sequencing
Summary of the method: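 For each CPEB3 ribozyme variant, relative activity is its cleaved/total read fraction divided by the unmutated ribozyme's. Barcoded error-prone PCR libraries were transcribed by T7 RNA polymerase (5 hours, 37°C) and held in DNase I for 15 min before an EDTA stop, with cleavage occurring throughout. Template-switching reverse transcription and Illumina sequencing were used to read the RNAs. A 5-read minimum applied, and results are the mean of three batches.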
Variant A21G U26C A77G has a self-cleavage of 0.16.
C23G A28G A45G gave a self-cleavage of 0.28.
With A21U U25C A65G U80C the self-cleavage was 0.26.
In the case of A21G U60C C81U, the self-cleavage is reported as 0.42.
Variant A21G U25C U31C G33A U41C A65G U66G has a self-cleavage of 0.08.
A21G G42A A64G showed a self-cleavage of 0.25.
Variant C23A U31C U48C A57G has a self-cleavage of 0.08.
In the case of A21U A45G A56U U66C, the self-cleavage is reported as 0.16.
With A21G G24A U26C U69A U80C the self-cleavage was 0.11.
A21G U25C U54C A64G showed a self-cleavage of 0.14.
With A21G U41G A57G the self-cleavage was 0.44.
A21G U25A G70C U78A showed a self-cleavage of 0.07.
Work on C23U A35G U48C U51C C79U yielded a self-cleavage of 0.26.
With A21U U25C U54C C68U the self-cleavage was 0.13.
In the case of A21G U49C A56U U67C, the self-cleavage is reported as 0.2.
In the case of A21G U54G U69C, the self-cleavage is reported as 0.18.
In the case of A21G G33U U49C G73U, the self-cleavage is reported as 0.11.
Variant C23A U25C A35U U48C A57U U66A U69C has a self-cleavage of 0.04.
Variant A21U U25C U80A has a self-cleavage of 0.3.
A21G U54C C71G gave a self-cleavage of 0.18.
A21U A35U U54G U60A U66C U80A showed a self-cleavage of 0.09.
A21U C34G U51C A56U U80C gave a self-cleavage of 0.1.
With G22A A56U U69A C71A the self-cleavage was 0.
For A21G U25C C59U U60A, the self-cleavage was 0.42.
A21G U26C A75G showed a self-cleavage of 0.25.
With A21G C38A U51C G63A the self-cleavage was 0.38.
In the case of A21G U26C U31A U43C U60C, the self-cleavage is reported as 0.07.
In the case of A21U C23G A35G U41A U78C, the self-cleavage is reported as 0.19.
Variant A21U A35U A45G A57U A64G has a self-cleavage of 0.24.
C23U U51A A56G U76C showed a self-cleavage of 0.14.
With A21G C59G U60C the self-cleavage was 0.05.
G22U U25C U26A G33A showed a self-cleavage of 0.14.
Work on G22U A65G U67C yielded a self-cleavage of 0.12.
Variant A21G U48C U74C has a self-cleavage of 0.58.
For C23G C40A U41A U67C, the self-cleavage was 0.06.
Work on A21U A47G U69C yielded a self-cleavage of 0.11.
For A21G C34A A47G U66C U69C, the self-cleavage was 0.16.
Work on A21U A45G C59U yielded a self-cleavage of 0.34.
In the case of G22U U67C U69C, the self-cleavage is reported as 0.28.
For C23G G30A U72A, the self-cleavage was 0.04.
A21U C44G U74C gave a self-cleavage of 0.26.
With C23G A56G U58A A64G G73A the self-cleavage was 0.02.
A21G U43G A56G showed a self-cleavage of 0.09.
For A21G U41C U58C, the self-cleavage was 0.22.
A21G U26C A35G A47G U58A gave a self-cleavage of 0.26.
A21G U26C U43C U66C U69A showed a self-cleavage of 0.38.
With A21U U25C U31C the self-cleavage was 0.25.
C23U C38G G42A showed a self-cleavage of 0.07.
For A21U C23U C27U C39U U54C A75U, the self-cleavage was 0.08.
Variant A21G U25A A45U C79U has a self-cleavage of 0.3.
Work on A21G G30C U31C U72C yielded a self-cleavage of 0.06.
Work on C23U U25C U58C G63A A64G yielded a self-cleavage of 0.12.
Work on C23A A45U U60C yielded a self-cleavage of 0.2.
G22C U48C U60C gave a self-cleavage of 0.11.
For C23A U25C A35C A45G A77G, the self-cleavage was 0.08.
C23U U72C C79A showed a self-cleavage of 0.53.
Variant C23U U49C U58C has a self-cleavage of 0.39.
Variant G22U A56G A57G G73A has a self-cleavage of 0.19.
G22U G33A A47G A77U gave a self-cleavage of 0.06.
Work on A21G G30A C40U U67C U69C U72A yielded a self-cleavage of 0.04.
C23U U66C U69G A77C gave a self-cleavage of 0.06.
With A21G U26A A35G A64G the self-cleavage was 1.2.
For A21G U43C U48A G63A A65U U69C C71G, the self-cleavage was 0.04.
C23A C27A G30A C34G U41C U43A showed a self-cleavage of 0.32.
With C23U U49C A56U A65C the self-cleavage was 0.31.
With A21U U41A U43G G63A A64G the self-cleavage was 0.1.
With C23G U51A U58A G70A the self-cleavage was 0.07.
In the case of A21G U51G A57G U67C U74C A75C, the self-cleavage is reported as 0.21.
For C23A U31G C62G, the self-cleavage was 0.08.
A21G U41A U51G G63A showed a self-cleavage of 0.11.
In the case of G22A U25G U48C U51A, the self-cleavage is reported as 0.19.
Variant A21G U60G U72A has a self-cleavage of 0.11.
A21G U26C A64U showed a self-cleavage of 0.27.
Variant C23A U41C A45G has a self-cleavage of 0.15.
Variant A21U G42A U51C has a self-cleavage of 0.31.
With G22U U25C A28U U41C U51A A57U U69C the self-cleavage was 0.05.
With A21U C34U C39A U43A U48C the self-cleavage was 0.19.
Variant A21U A28G U48C A64G has a self-cleavage of 0.06.
A21G G30C U78A gave a self-cleavage of 0.27.
G22A A28G U48C gave a self-cleavage of 0.07.
Variant G22A C29A C40U has a self-cleavage of 0.17.
Work on A21U U31C C71A yielded a self-cleavage of 0.1.
Variant C23A A35G U72A has a self-cleavage of 0.07.
